# Test results: PubChem BioAssay AID463173 (ICCB-Longwood Screening Facility, Harvard Medical School, 2010)
# Among all 52,000 compounds or so, about 1,700 (3.3%) were called active. Rule as the data show it: active = survival mostly below about 52% (no sharp cut-off); inactive = mostly above about 56%. This is one part of the list.
# System: Wild type
# Test: growth inhibition of S. aureus wild type versus tarO mutant, primary screen, teichoic acid synthesis inhibitors, RN4220, OD600 (AID 463173)
# Settings: S. aureus RN4220 wild type/DeltatarO growth, OD600, 18 h, active compounds read low, screened at 18.75 µg/mL (by protocol)
row,Compound,survival
1,COc1ccc(-n2nc(C(=O)Nc3cc(C)ccn3)c3c4ccccc4n(C)c3c2=O)cc1Cl,inactive: 90%
2,O=c1c2oc3ccccc3c2n(Cc2cccc(F)c2)c(=O)n1Cc1ccc2c(c1)OCO2,inactive: 86%
3,COC(=O)c1cccc(CN2C(=O)SC(Nc3ccc(C)cc3)C2=O)c1 (stereo not drawn),inactive: 71%
4,Cc1ccccc1CNC(=O)C(=O)NCC(c1cccs1)S(=O)(=O)c1cccs1 (stereo not drawn),inactive: 115%
5,C=Cc1ccc(Cn2c(SCC(=O)N3CCN(c4ccc(F)cc4)CC3)nc3ccccc32)cc1,inactive: 75%
6,CCc1ccc(NC(=O)Cn2c(=O)c3cc(Cl)ccc3n3nncc23)cc1,inactive: 92%
7,CCOc1ccc(-c2cc(C(=O)NCCc3ccc(OC)c(OC)c3)[nH]n2)cc1,inactive: 73%
8,C=CCn1c2ccccc2c2ccccc21,inactive: 80%
9,CN1CC(=O)N(CC(=O)Nc2ccc(OC(F)(F)F)cc2)c2ccccc2C1=O,inactive: 69%
10,Cc1ccc(C)c(C(C)c2ccc(C)nc2)c1 (stereo not drawn),inactive: 119%
11,COc1cc(C2CC(=O)Nc3c2c(=O)n(C)c2ncnn32)cc(OC)c1OC (stereo not drawn),inactive: 143%
12,CCOC(=O)c1c(NC(=O)c2cc(CC)on2)sc(C(C)=O)c1C,inactive: 80%
13,Cc1cccc(NC(=O)/C(C#N)=C/c2ccc(C)o2)c1,inactive: 77%
14,CCOC(=O)c1ccc(NC(=O)CCc2nc3cccnc3n2Cc2cccs2)cc1,inactive: 82%
15,Cc1ccc(S(=O)(=O)c2cn(CC(=O)Nc3ccc(Cl)cc3)c3ccc(F)cc3c2=O)cc1C,inactive: 56%
16,O=S(=O)(NC1CCCC1)c1ccc(Br)cc1,inactive: 116%
17,S=c1nc[nH]c2c1oc1ccccc12,inactive: 96%
18,CC(=O)c1ccc(N2CCN(c3ccc4cc(S(=O)(=O)N5CCC(C)CC5)ccc4n3)CC2)cc1,inactive: 71%
19,COc1ccc(CCN2CCC(CNC(=O)c3cnn(-c4cccc(Cl)c4)c3C3CCN(C(=O)OC(C)(C)C)CC3)CC2)cc1,inactive: 92%
20,Cc1cccc(Cn2c(Cc3ccccc3)nc3ccccc32)c1,active: 29%

row,Compound,survival
1,O=C(CN1c2ccccc2S(=O)(=O)c2ccccc21)Nc1cccc(C(F)(F)F)c1,inactive: 88%
2,COc1ccc(N2CCN(C(=O)C3CCN(c4nc5ccc(C)cc5[nH]4)CC3)CC2)cc1,inactive: 72%
3,CSc1ccc(CCNC(=O)c2c(C)oc3ncn(C)c(=O)c23)cc1,active: -4%
4,CCOC(=O)c1cnc(N2CCN(c3ccc(OC)cc3)CC2)c2ccccc12,inactive: 89%
5,COc1ccccc1N1CCN(c2ncnc3c2c(-c2ccccc2)cn3-c2cccc(C)c2)CC1,inactive: 84%
6,Cc1cc(C)n(CC(=O)n2c3ccccc3c3ccccc32)n1,inactive: 96%
7,CC1CCN(S(=O)(=O)c2csc(C(N)=O)c2)CC1,inactive: 87%
8,CCN1CCN(c2ncnc3c2cnn3-c2cc(Cl)ccc2C)CC1,inactive: 134%
9,CCOC(=O)c1c(S(=O)(=O)NCC(=O)N(C)Cc2ccccc2)c(C)n(C)c1C,inactive: 80%
10,O=C(CSc1oc(-c2ccc(F)cc2)nc1S(=O)(=O)c1ccc(Br)cc1)NC1CCCCC1,inactive: 68%
11,CCCOc1ccc(C2c3c(oc4ccc(F)cc4c3=O)C(=O)N2CCc2ccc(OC)cc2)cc1 (stereo not drawn),inactive: 62%
12,Cc1ccc(CSc2nc3cccnc3n2Cc2ccc(C(=O)NC3CCCCC3)cc2)cc1,inactive: 71%
13,CCOc1ccc2c(c1)c(=O)c(S(=O)(=O)c1ccc(C)cc1)cn2Cc1ccccc1Cl,inactive: 92%
14,CC(=O)Nc1nonc1-c1nnc(SCC(=O)Nc2ccc(C)c(Cl)c2)n1C,inactive: 88%
15,COc1ccc(-c2nc(S(=O)(=O)c3ccc(C)cc3)c(N3CCCCC3)o2)cc1,inactive: 63%
16,Cc1ccc(CNC(=O)CN2C(=O)CC(c3ccc(C)c(C)c3)=Nc3ccccc32)cc1,inactive: 64%
17,Cc1cc(N(C(=O)c2cnccn2)C(C(=O)NCc2ccccc2)c2cccs2)ccc1-n1cnnn1 (stereo not drawn),inactive: 113%
18,CCCCOC(=O)c1ccc(Nc2ncnc3c2cnn3-c2cccc(C)c2)cc1,inactive: 88%
19,NS(=O)(=O)c1ccccc1,inactive: 100%
20,CC(Oc1ccc(Cl)cc1Cl)C(=O)N1CCN(C(=O)c2ccco2)CC1 (stereo not drawn),inactive: 123%

row,Compound,survival
1,COc1cc(S(=O)(=O)Nc2ccccn2)ccc1Cl,inactive: 113%
2,Cc1cc(C(C)(C)C)oc1C(=O)N(CC(=O)NC1CCCC1)c1ccc(F)cc1,inactive: 114%
3,Cc1cccc(CN2CCC(CNc3ncnc4onc(-c5ccc(Cl)cc5)c34)CC2)c1,inactive: 82%
4,COc1ccc(NC(=O)C2CCCN(S(=O)(=O)c3cccc4nonc34)C2)cc1Cl (stereo not drawn),inactive: 103%
5,Clc1cccc(-n2cc(-c3ccccc3)c3c(NC4CCCC4)ncnc32)c1,inactive: 74%
6,COc1ccccc1NC(=O)CSc1nc2c(oc3ccccc32)c(=O)n1Cc1ccco1,inactive: 70%
7,Cc1ccc(-c2nnc3c4ccccc4c(C)nn23)cc1NC(=O)c1cccc(Br)c1,inactive: 65%
8,COc1cccc(N2CCN(c3ncnc4c3c(-c3ccccc3)cn4-c3ccc(F)cc3)CC2)c1,inactive: 83%
9,CCCCN(CC)C(=O)CCCn1c(=O)c2cccn2c2ccccc21,inactive: 81%
10,O=C(NCc1cccc(Cl)c1)NCc1noc2ccccc12,inactive: 83%
11,COc1ccc(CNC(=O)CCNS(=O)(=O)c2ccc3c(c2)CCCC(=O)N3)cc1,inactive: 123%
12,Cc1ccc(Cn2c(CCNC(=O)C(C)C)nc3ccccc32)cc1,inactive: 81%
13,Cc1ccc(Cl)cc1N(C)C(=O)C1CCCN(c2ncnc3onc(-c4ccc(F)cc4)c23)C1 (stereo not drawn),inactive: 102%
14,COc1ccc(-c2nc(SCC(=O)NCc3ccccc3Cl)n[nH]2)cc1,inactive: 76%
15,O=C(CNCc1ccccc1F)Nc1ccc(N2CCCC2)cc1,inactive: 123%
16,CC(C(=O)Nc1ccccc1)N1C(=O)c2ccccc2C1=O (stereo not drawn),inactive: 110%
17,O=C(Cn1nc(-c2ccc(Cl)cc2)ccc1=O)NCCc1ccccc1,inactive: 45%
18,CCOC(=O)CCc1c(C)nc2c(c(C)nn2-c2ccc(C)cc2)c1C,inactive: 119%
